# Data: the BET-seq Pho4 binding data (Le et al. 2018)
# Some of the results follow. The energies were worked out here from pooled read counts, against the library average; single values are noisy.
# Biological target: T1, Pho4 (S. cerevisiae) (UniProt P07270)
# T1 sequence: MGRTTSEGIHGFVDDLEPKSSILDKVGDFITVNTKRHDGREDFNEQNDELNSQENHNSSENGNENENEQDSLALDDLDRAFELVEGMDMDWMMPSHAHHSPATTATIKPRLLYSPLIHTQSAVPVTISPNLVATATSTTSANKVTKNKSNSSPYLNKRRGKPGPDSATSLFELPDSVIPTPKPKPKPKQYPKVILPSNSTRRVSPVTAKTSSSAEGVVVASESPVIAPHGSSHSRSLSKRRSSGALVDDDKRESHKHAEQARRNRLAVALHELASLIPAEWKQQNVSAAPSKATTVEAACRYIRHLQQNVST
# Experiment: relative binding free energy (BET-seq); higher = weaker binding
# Settings: reference: library average
row,Sequence,relative binding free energy [kcal/mol]
1,TTAAGCACGTGTTGTA,-0.07
2,GTTAGCACGTGTCTTC,0.24
3,AATGTCACGTGTGGCA,0.2
4,TTAGACACGTGTACAT,0.18
5,TTGGACACGTGAGTGC,0.29
6,AATTGCACGTGTTCTG,-0.06
7,TGACTCACGTGTGAGG,0.14
8,TACGTCACGTGTCGGT,0.15
9,GGTAACACGTGGGCGG,-0.12
10,TGTTGCACGTGGCTTT,-0.07
11,GTCCGCACGTGGGGAT,-0.2
12,TGTTTCACGTGTCGTT,0.38
13,GGTGTCACGTGCTAGA,0.02
14,ATTTTCACGTGTATTC,0.19
15,AGTGGCACGTGGTACC,-0.16
16,AGGTTCACGTGTATTT,0.28
17,GTTTGCACGTGGTGCT,-0.05
18,TCGATCACGTGAAGTT,0.33
19,GTCTACACGTGATTGG,0.23
20,GGCTTCACGTGATGGA,0.37
21,GGTTACACGTGAGCGG,0.42
22,TTGTACACGTGGGGGT,0.01
23,TTTCTCACGTGTGGGA,0.25
24,CATTTCACGTGGAAGT,0.32
25,ACGGTCACGTGAAATG,0.39
26,ACAAGCACGTGTGGTT,0.04

row,Sequence,relative binding free energy [kcal/mol]
1,CATGTCACGTGTGGTC,0.2
2,GGAGACACGTGACTGG,0.1
3,GTTTGCACGTGTTCTT,0.1
4,ATGTACACGTGGAATT,0.19
5,CTCGTCACGTGTTTAG,0.09
6,TTTGACACGTGGTTAC,0
7,TGCGGCACGTGTAGAG,0.08
8,GGATTCACGTGGCAGG,0.22
9,AACAGCACGTGTGGTA,0
10,CGGAGCACGTGGGCGT,-0.28
11,AGACGCACGTGGTTAG,-0.08
12,TGCTTCACGTGGTTTG,0.22
13,TTATGCACGTGCGCTT,-0.05
14,TGGATCACGTGCGGTT,0.14
15,TTCGGCACGTGTGGCA,-0.05
16,CGGGGCACGTGGCAAG,-0.19
17,CGTTGCACGTGGATTA,-0.06
18,TGGGCCACGTGGTGTA,-0.22
19,TATTCCACGTGGTTAG,0.1
20,TAAATCACGTGGGAAG,0.11
21,CCTGGCACGTGAGGGA,0.13
22,GGTTTCACGTGATTAT,0.39
23,GTTTTCACGTGGATGC,0.21
24,ATTGGCACGTGGGTAA,-0.21
25,AGTGGCACGTGTATGC,-0.04
26,AGGTGCACGTGTTATA,-0.04

row,Sequence,relative binding free energy [kcal/mol]
1,GTGGTCACGTGTACGG,0.19
2,TGGGGCACGTGGGGAG,-0.17
3,AATCTCACGTGGGTGT,0.23
4,TGGCTCACGTGTTGAT,0.22
5,AATTTCACGTGTGGTC,0.25
6,ATAAGCACGTGTATAT,-0.05
7,CGAGGCACGTGGGTTT,-0.06
8,TCTATCACGTGAGGGA,0.29
9,TGCAGCACGTGGTAAT,-0.13
10,ATTTACACGTGGAGTA,0.01
11,GGTGCCACGTGGATTG,-0.15
12,TTGTGCACGTGGCGAT,-0.05
13,GTCGGCACGTGCGGAG,0.03
14,AAAGTCACGTGTGGAT,0.2
15,ATTGCCACGTGAGGCG,0.14
16,TAATGCACGTGGGCAT,-0.13
17,TAGGCCACGTGGTAGT,-0.22
18,TGCGTCACGTGTTAAT,0.12
19,GGGCTCACGTGTTGTG,0.18
20,TGTGTCACGTGACGAA,0.13
21,TTATGCACGTGGTGAG,-0.09
22,GTCTTCACGTGGTTTT,0.37
23,ACGTACACGTGTAGGT,0.08
24,TGTGTCACGTGGCGTG,0.06
25,GATTCCACGTGTTGTG,0.22
26,GCCGTCACGTGGTTGG,0.08

row,Sequence,relative binding free energy [kcal/mol]
1,CGGGACACGTGTTATT,0.11
2,GCTAACACGTGGGGGG,-0.22
3,GGCGTCACGTGTGATT,0.34
4,GTTACCACGTGTAGTT,0.06
5,CTATGCACGTGGTGTC,-0.12
6,GTTGGCACGTGTAACT,0.12
7,GTAGGCACGTGGCTAG,-0.29
8,GTTGCCACGTGCTGGG,-0.12
9,TGACTCACGTGTGTTA,0.34
10,TATCTCACGTGAGGGT,0.47
11,CGGTGCACGTGGGGAA,-0.11
12,GGTAACACGTGAGGTG,0.29
13,GTAAACACGTGGGGAG,-0.1
14,CATGTCACGTGGCAGG,-0.01
15,TCAGTCACGTGTTACG,0.18
16,TGACTCACGTGTTGCG,0.2
17,GGGGGCACGTGGTGAT,-0.14
18,GCTGCCACGTGTAGGG,0.01
19,ATTAGCACGTGGTGCA,-0.15
20,TGAGCCACGTGGGTGA,-0.17
21,GTTTTCACGTGTGCTC,0.39
22,AATGTCACGTGGTCTG,-0.02
23,CGATGCACGTGGAGTG,0.04
24,TTTTGCACGTGTGCGC,0.1
25,TTGGACACGTGTACAG,0.12
26,TCGCCCACGTGGGGGT,-0.17

row,Sequence,relative binding free energy [kcal/mol]
1,ACATGCACGTGGGTGT,-0.34
2,ATCGCCACGTGGTGTT,-0.04
3,GCTTGCACGTGTATTA,0.13
4,TGTTACACGTGATAAG,0.38
5,GGTATCACGTGGATAG,0.28
6,ATGGACACGTGTGATT,0.17
7,GTATGCACGTGTTAAG,0.05
8,GGGAGCACGTGGTACG,-0.11
9,TTCACCACGTGTGGTA,0.2
10,TATTGCACGTGTTAGT,-0.01
11,TGTAGCACGTGGATTC,-0.1
12,GTTAGCACGTGGAGGC,0.05
13,GGTTTCACGTGGGGTC,0.21
14,CGTTACACGTGGGTTT,0.04
15,GTGTTCACGTGGGATG,0.29
16,ATTTACACGTGTGCGA,0.13
17,TTGTGCACGTGTGTAG,-0.05
18,GGAGGCACGTGGGTAA,-0.21
19,AGCAGCACGTGATAGG,0.1
20,GGGAACACGTGGGTTA,-0.09
21,CGTTGCACGTGAGGGA,0.22
22,AGCTTCACGTGTTGTA,0.13
23,TATCTCACGTGTAGAT,0.34
24,GAAGGCACGTGTTTTT,-0.09
25,TGAGGCACGTGGGCTC,-0.16
26,GGAGGCACGTGGCTGG,-0.09

row,Sequence,relative binding free energy [kcal/mol]
1,TTAGGCACGTGTGGCC,-0.05
2,ATCTACACGTGGCGGG,0.19
3,TTCTGCACGTGGATTT,-0.03
4,GTCATCACGTGCGTGT,0
5,TGTGCCACGTGGTTTG,-0.08
6,AGTGTCACGTGAACGT,0.03
7,GCGGACACGTGCGTGG,-0.09
8,ATGTACACGTGTAAAG,0.19
9,TAGTGCACGTGGCATT,-0.05
10,CCGAGCACGTGTGGGG,-0.07
11,TTCAGCACGTGGGGAG,-0.15
12,TAATTCACGTGAAGTG,0.32
13,AGAATCACGTGTATGG,-0.01
14,AACTTCACGTGGTAGT,0.13
15,GGTGTCACGTGCTGAG,0.08
16,GCTTTCACGTGGGTGA,0.22
17,AGTTTCACGTGTTGAT,0.23
18,GTACTCACGTGGGCGG,0.15
19,ATGAGCACGTGGAGTA,-0.25
20,TATGACACGTGTCATT,0.12
21,AATCTCACGTGTGTTC,0.42
22,TTGTGCACGTGACGGG,0.12
23,GTTCGCACGTGATTTA,0.07
24,AGTAGCACGTGGTATA,-0.17
25,TGGGACACGTGCGTCT,-0.03
26,TGTATCACGTGAGGCG,0.38

row,Sequence,relative binding free energy [kcal/mol]
1,GTATACACGTGTGGAT,0.01
2,GGGAGCACGTGGGTGG,-0.12
3,GTTATCACGTGATGAT,0.22
4,GGCTACACGTGGTAGA,0.21
5,TTTTACACGTGAGCTG,0.37
6,TGTGGCACGTGGGGTA,-0.23
7,GGGATCACGTGAGTTA,0.1
8,TGGGTCACGTGTATAC,0.08
9,CGTAGCACGTGGGTTA,-0.2
10,AAAAGCACGTGAGTGT,-0.02
11,TGGTGCACGTGAATCG,0.27
12,TCTAGCACGTGTAGGA,-0.04
13,GGGATCACGTGTGTAG,0.31
14,AATGCCACGTGAGTGT,0.2
15,TGTGACACGTGGTTTC,0.11
16,TTGCACACGTGGGTTT,-0.08
17,AGGTGCACGTGAGAGG,0.19
18,TGTTACACGTGATAGC,0.14
19,CTGAGCACGTGTGTTG,-0.04
20,TTGGTCACGTGTACAT,0.16
21,AGTCGCACGTGCTGGT,-0.15
22,GAGGCCACGTGGTTTT,0.01
23,AGAAACACGTGGCGGG,-0.09
24,GTTTGCACGTGTCGAT,0.17
25,CGAGTCACGTGTTGGT,0.04
26,TGCTTCACGTGATTGA,0.3

row,Sequence,relative binding free energy [kcal/mol]
1,GTGTGCACGTGGGTGC,-0.13
2,GTGAGCACGTGATTAG,0.06
3,AACGTCACGTGAAGGG,0.27
4,TCATGCACGTGGTATA,-0.1
5,AATGGCACGTGTATTT,-0.02
6,GGCGGCACGTGAATTT,0.31
7,TCTGTCACGTGTTGCA,0.03
8,GGAAGCACGTGGTGAT,-0.22
9,AGTTCCACGTGGTGAT,0.05
10,TTTGGCACGTGACTCG,0.05
11,CATCACACGTGTTGTG,0.24
12,TGTCACACGTGGGGGT,-0.02
13,TGTTTCACGTGAGCCG,0.48
14,CATGGCACGTGTGATT,-0.06
15,TGGTGCACGTGTTAGA,-0.05
16,TGGTGCACGTGTGTCC,-0.03
17,AGGTCCACGTGGAGTA,-0.04
18,GGTATCACGTGAAGAG,0.29
19,TATAGCACGTGCGGTA,-0.14
20,GTAAGCACGTGGGGAC,-0.02
21,TTTACCACGTGTTGTC,0.09
22,GTTCTCACGTGGATGT,0.29
23,GTTCACACGTGTTTGA,0.06
24,GGTGTCACGTGGGAGT,0.06
25,ATGACCACGTGGTTGT,-0.14
26,GATGACACGTGTGTCT,0.23

row,Sequence,relative binding free energy [kcal/mol]
1,GAGTTCACGTGTATTG,0.08
2,TGGTTCACGTGGACTC,0.33
3,TGCTGCACGTGTTGGG,0.09
4,TATTTCACGTGGGAGC,0.34
5,AAGTTCACGTGGTATT,0.15
6,TTGAGCACGTGAGGAC,0.44
7,AGGTACACGTGGGCTA,-0.09
8,TCTATCACGTGGTTGT,0.15
9,AGTAGCACGTGGTAAT,-0.19
10,GTTTGCACGTGGGCGG,-0.04
11,CTTTTCACGTGTATGG,0.32
12,TGCTTCACGTGGTTGT,0.3
13,AAAGTCACGTGGAGGA,0.07
14,GGGGACACGTGATGCA,0.13
15,TCTATCACGTGTAGTT,0.26
16,TAGGGCACGTGCATGG,-0.26
17,GGTATCACGTGTTTCA,0.23
18,GCGATCACGTGCGTGG,0.15
19,GGTTGCACGTGTCGGC,0.04
20,TTTGACACGTGGAGGG,-0.02
21,GGGGTCACGTGAATGA,0.35
22,CGGGTCACGTGAATAG,0.25
